According to the supplement of paper PMC8728848:
Some of the results follow.

What was measured:
Test in all cases: glycan array binding signal (z-score within array); higher = stronger binding
Conditions in all cases: glycan notation: IUPAC condensed, linker removed
[1] = target: Gal(b1-4)GlcNAc(b1-6)GalNAc
Summary of the method: (§1)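 The Consortium for Functional Glycomics database supplied 3228 glycan arrays, of which those lacking an available protein sequence were dropped. The binding signal, a within-array Z-score, was averaged across arrays of the same protein sequence and across linkers. Negative scores can be read as non-binding.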

[2] = target: Gal(b1-4)GlcNAc(b1-6)[Gal(b1-3)]GalNAc
Summary of the method: as §1

[3] = target: Gal(b1-4)GlcNAc(b1-6)[Gal(b1-4)GlcNAc(b1-3)]GalNAc
Summary of the method: as §1

[4] = target: Gal(b1-4)GlcNAc6P
Summary of the method: as §1

[5] = target: Gal(b1-6)Gal
Summary of the method: as §1

[6] = target: Gal3S(b1-3)GalNAc
Summary of the method: as §1

[7] = target: Gal3S(b1-3)GlcNAc
Summary of the method: as §1

[8] = target: Gal3S(b1-3)[Fuc(a1-4)]GlcNAc
Summary of the method: as §1

[9] = target: Gal3S(b1-4)Glc
Summary of the method: as §1

[10] = target: Gal3S(b1-4)Glc6S
Summary of the method: as §1

[11] = target: Gal3S(b1-4)GlcNAc
Summary of the method: as §1

[12] = target: Gal3S(b1-4)[Fuc(a1-3)]Glc6S
Summary of the method: as §1

[13] = target: Gal3S(b1-4)[Fuc(a1-3)]GlcNAc
Summary of the method: as §1

[14] = target: Gal3S(b1-4)[Fuc(a1-3)]GlcNAc6S
Summary of the method: as §1

[15] = target: Gal3S4S(b1-4)GlcNAc
Summary of the method: as §1

[16] = target: Gal3S6S(b1-4)GlcNAc
Summary of the method: as §1

[17] = target: Gal3S6S(b1-4)GlcNAc6S
Summary of the method: as §1

[18] = target: Gal4S(b1-4)GlcNAc
Summary of the method: as §1

[19] = target: Gal4S6S(b1-4)GlcNAc
Summary of the method: as §1

[20] = target: Gal6P(b1-4)GlcNAc
Summary of the method: as §1

[21] = target: Gal6S(b1-3)GlcNAc
Summary of the method: as §1

[22] = target: Gal6S(b1-3)GlcNAc6S
Summary of the method: as §1

[23] = target: Gal6S(b1-4)Glc
Summary of the method: as §1

[24] = target: Gal6S(b1-4)Glc6S
Summary of the method: as §1

[25] = target: Gal6S(b1-4)GlcNAc
Summary of the method: as §1

[26] = target: Gal6S(b1-4)GlcNAc6S
Summary of the method: as §1

[27] = target: GalNAc(a1-3)Gal
Summary of the method: as §1

[28] = target: GalNAc(a1-3)GalNAc
Summary of the method: as §1

[29] = target: GalNAc(a1-3)GalNAc(b1-3)Gal(a1-4)Gal(b1-4)Glc
Summary of the method: as §1

[30] = target: GalNAc(a1-3)GalNAc(b1-3)Gal(a1-4)Gal(b1-4)GlcNAc
Summary of the method: as §1

[31] = target: GalNAc(b1-3)Gal
Summary of the method: as §1

[32] = target: GalNAc(b1-3)Gal(a1-4)Gal(b1-4)GlcNAc
Summary of the method: as §1

[33] = target: GalNAc(b1-3)Gal(a1-4)Gal(b1-4)GlcNAc(b1-3)Gal(b1-4)Glc
Summary of the method: as §1

[34] = target: GalNAc(b1-3)Gal(a1-6)Gal(b1-4)Glc
Summary of the method: as §1

[35] = target: GalNAc(b1-3)GalNAc
Summary of the method: as §1

[36] = target: GalNAc(b1-3)GlcNAc
Summary of the method: as §1

[37] = target: GalNAc(b1-4)Gal(b1-4)Glc
Summary of the method: as §1

[38] = target: GalNAc(b1-4)GlcNAc
Summary of the method: as §1

B1: PX14343A-bvu-539-29-539 (Bacteroides vulgatus) (protein)
chain: DSLTESSSNTFWQTPDDALMALASCYDALQSNQLYNSDQYSLGPLYMDCISDNGGHFNWSGWMEGYDMAMGIHTPSSSIIGSYWKDCYEVISRCNVLIANIDRVDMDASQKAIYQAEAKTIRALMYINLTMTYQDVPFLTAPLTIDEAECEKTDRAAIVAHVMTDLQDAAEVLPQNASSRGHITKGAALSLLGRVALYNEKWDDAIAAYKQVQGLGYSLDPSYAKLFTQSGETSPEIIFAVRYEGPGMSEGAAFNAHWNTPLEAMNGTIDLADAYYCKDGKPTTDTKIAELNGGGGLDVSKPNPAHFENRDPRLYSTLFVPGMLWNGKGGIDTSASNPYANVYGGAAASLSTVYVYKYFDPTDTSNSWDNGQDFYVVRYAEVLLSLAEAMVQKGGYVYSDVTALVNEVRQRADVNMPTVEEVEGTSLSKDELLEVIKHERRVELAFEGLRLFDLYRWKELDKAVANIENERTMYGLAYEARKFNGERDYVWPLPTAELDTNKKLVQHDLWK
For B1, the “glycan array binding signal (z-score)” value [1] was -0.291, the “glycan array binding signal (z-score)” value [2] was -0.318 and the “glycan array binding signal (z-score)” value [3] was -0.235. The “glycan array binding signal (z-score)” value [4] was -0.242, the “glycan array binding signal (z-score)” value [5] was -0.125 and the “glycan array binding signal (z-score)” value [6] was -0.06. For the same binder, the “glycan array binding signal (z-score)” value [7] was -0.038, the “glycan array binding signal (z-score)” value [8] was -0.171 and the “glycan array binding signal (z-score)” value [9] was 0.037. For the same binder, the “glycan array binding signal (z-score)” value [10] was -0.101, the “glycan array binding signal (z-score)” value [11] was -0.098 and the “glycan array binding signal (z-score)” value [12] was -0.051. The “glycan array binding signal (z-score)” value [13] was -0.121, the “glycan array binding signal (z-score)” value [14] was -0.102 and the “glycan array binding signal (z-score)” value [15] was -0.103. The “glycan array binding signal (z-score)” value [16] was -0.045, the “glycan array binding signal (z-score)” value [17] was 0.278 and the “glycan array binding signal (z-score)” value [18] was -0.12. For the same binder, the “glycan array binding signal (z-score)” value [19] was -0.247, the “glycan array binding signal (z-score)” value [20] was -0.055 and the “glycan array binding signal (z-score)” value [21] was -0.016. The “glycan array binding signal (z-score)” value [22] was 0.74, the “glycan array binding signal (z-score)” value [23] was -0.179 and the “glycan array binding signal (z-score)” value [24] was 0.222. The “glycan array binding signal (z-score)” value [25] was -0.071, the “glycan array binding signal (z-score)” value [26] was -0.124 and the “glycan array binding signal (z-score)” value [27] was 0.27. For the same binder, the “glycan array binding signal (z-score)” value [28] was -0.355, the “glycan array binding signal (z-score)” value [29] was -0.177 and the “glycan array binding signal (z-score)” value [30] was -0.196. The “glycan array binding signal (z-score)” value [31] was -0.17, the “glycan array binding signal (z-score)” value [32] was -0.221 and the “glycan array binding signal (z-score)” value [33] was -0.121. The “glycan array binding signal (z-score)” value [34] was 0.113, the “glycan array binding signal (z-score)” value [35] was -0.33 and the “glycan array binding signal (z-score)” value [36] was -0.119. The “glycan array binding signal (z-score)” value [37] was 0.018 and the “glycan array binding signal (z-score)” value [38] was 0.181.
